# PubChem BioAssay AID485344 (National Center for Advancing Translational Sciences (NCATS), 2010)
# Hit rate of the full screen: of about 340,000 compounds, about 6,900 (2%) were called active. No stated cut-off is given here; in the data, active means inhibition above about 30%; inactive means below that, where a call was filed. This is a selection; strong and weak results do not stand in their true shares. Entries without a call were filed so in the source.
# Biological target: D(2) dopamine receptor (Homo sapiens) (UniProt P14416)
# Experiment: HTS Assay for Allosteric Antagonists of the Human D2 Dopamine Receptor: Primary Screen for Antagonists; further: 0% is about no effect
# Conditions: HEK293 TREx D2 cells, calcium flux, dopamine EC80; at 10 µM; stronger effect = higher value
# In short: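 Calcium flux kinetic readout in an inducible HEK293 TREx D2 line plated overnight at 30 C. After 180 s compound exposure, an EC80 dopamine challenge follows with another 180 s kinetic read to detect antagonism.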
# Chain of UniProt P14416 (P14416 whole entry, looked up): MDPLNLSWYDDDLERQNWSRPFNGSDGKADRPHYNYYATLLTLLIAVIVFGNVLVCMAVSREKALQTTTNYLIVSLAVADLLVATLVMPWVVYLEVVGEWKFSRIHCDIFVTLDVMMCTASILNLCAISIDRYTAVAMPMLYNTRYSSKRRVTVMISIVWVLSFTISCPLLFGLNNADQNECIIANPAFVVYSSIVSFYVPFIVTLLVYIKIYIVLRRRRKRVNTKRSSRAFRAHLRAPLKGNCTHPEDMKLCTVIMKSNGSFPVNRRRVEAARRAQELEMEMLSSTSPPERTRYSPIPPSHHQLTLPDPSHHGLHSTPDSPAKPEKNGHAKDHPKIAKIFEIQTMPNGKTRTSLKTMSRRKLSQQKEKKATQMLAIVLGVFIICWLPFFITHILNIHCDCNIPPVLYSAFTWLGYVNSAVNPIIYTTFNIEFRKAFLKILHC
row,SMILES,inhibition
1,COc1cccc(CNC(=O)C2CCN(C(=O)c3sccc3-n3cccc3)CC2)c1,-11.1%
2,CCOC(=O)c1cc(-c2ccc(OC)cc2)n(CCC(=O)Nc2cccc(C(C)=O)c2)c1C,-0.832%
3,COc1ccc(CNS(=O)(=O)c2ccc(F)c(C(=O)Nc3c(C)cc(C)cc3C)c2)cc1,-0.531%
4,Cc1cc2oc(C(=O)Nc3sc4c(c3C(=O)NCc3ccccc3)CCCC4)cc(=O)c2cc1C,3.31%
5,CN(C)c1ccc(CNC(=O)CN2C(=O)CCn3nc(-c4cn(C)c5ccccc45)cc32)cc1,9.58%
6,COc1cccc(-c2nc3c(c(SCc4ccccc4Cl)n2)Cc2c(CO)cnc(C)c2O3)c1,12.1%
7,Cc1ccc(CNC(=O)CN2C(=O)CSc3ccc(S(=O)(=O)N4CCCC4)cc32)cc1,-5.11%
8,CCc1ccc(C(=O)CSc2nc(-c3ccccc3)nc3c2CCCC3)cc1,-24.8%
9,COc1cccc(CNS(=O)(=O)c2ccc3c(c2)N(C(C)=O)CCO3)c1,active: 61.4%
10,COc1ccc2nc3sc(C(=O)N4CCN(c5ccc(F)cc5)CC4)cc3cc2c1,-3.65%
11,Cc1ccc(C)c(N2CCN(S(=O)(=O)c3ccc4c(c3)CCCN4C(=O)C3CCC3)CC2)c1,3.71%
12,Cc1ccc(NC(=O)C(C)Sc2nc(-c3ccccc3)cc(=O)[nH]2)cc1 (stereo not given),active: 36.5%
13,Cc1ccc([N+](=O)[O-])c(Oc2ncnc3c2oc2ccccc23)c1,6.44%
14,Cc1ccc(NC(=O)CCCN2C(=O)COc3ccc(C)cc32)c(C)c1,0.76%
15,COc1ccc2c(Sc3ccccc3)c(C(=O)N3CCC(C)CC3)[nH]c2c1,19.3%
16,CCCn1c2ccccc2c2cnn(CC(=O)NC(C)CC)c(=O)c21 (stereo not given),-18.9%
17,COc1ccc(OC(=O)CSc2nnc(-c3ccc(F)cc3)o2)cc1,19.6%
18,CCC(=O)N1CCN(c2nc3c(C)cccc3s2)CC1,-16.8%
19,CCCCOC(=O)/C(C#N)=C/c1ccc(-c2ccc(Br)cc2)o1,-12.2%
20,NC(=O)Cn1c(=O)n(CCCCCC(=O)NCc2ccccc2Cl)c(=O)c2sccc21,-2.92%
21,Cc1ccc(/C=C/C(=O)Oc2ccc(C#N)cc2)o1,active: 48.4%
22,COc1ccc(C2C(=O)N(C3CCCCCC3)CC(=O)N2Cc2ccccc2)cc1 (stereo not given),10.3%
23,COC(=O)c1c(-c2cccs2)csc1NC(=O)COc1ccccc1,3.59%
24,CC(CNC(=O)c1ccc(Nc2nc3ccccc3n3nnnc23)cc1)c1ccccc1 (stereo not given),12.4%

row,SMILES,inhibition
1,CCOC(=O)c1c(-c2ccc(C)cc2C)csc1NC(=O)c1ccccc1Cl,11.2%
2,NC(=O)C1CCN(C(=O)c2ccc3c(c2)N(Cc2cccc(Cl)c2)C(=O)c2ccccc2S3(=O)=O)CC1,-2.48%
3,Cc1ccc2c(=O)cc(C(=O)Nc3c(C(=O)c4ccccc4)oc4ccccc34)oc2c1,-2.27%
4,CCOc1ccc(NS(=O)(=O)c2ccc3[nH]cc(C(=O)N(C)C4CCCCC4)c(=O)c3c2)cc1,-0.0685%
5,O=C(NCCCN1CCCCC1)c1ccc2c(c1)sc1nc(-c3ccc(F)cc3)cn12,19.7%
6,CCc1ccc(-n2c(=O)c3ccc(C(=O)NCCc4ccccc4)cc3n(Cc3ccccc3C#N)c2=O)cc1,17.1%
7,CCOc1ccccc1OCCCNCc1ccco1,active: 30.6%
8,O=C(Nc1ccc2nc(SCC(=O)N3CCCC3)sc2c1)c1cccc(F)c1,-16.3%
9,NC[C@H]1O[C@H](O[C@H]2[C@H](O)[C@@H](O[C@H]3O[C@H](CO)[C@@H](O)[C@H](N)[C@H]3O)[C@H](N)C[C@@H]2N)[C@H](N)C[C@@H]1O,active: 36.9%
10,COc1ccc(-c2nnc(SCC(=O)c3ccc(NC(C)=O)cc3)o2)cc1OC,-3.32%
11,COc1ccc(-c2nc3ccccc3o2)cc1NC(=O)c1ccc(OCC(C)C)cc1,2.92%
12,CSc1ccc(C2c3[nH]c4ccccc4c3CCN2C(=O)CCC2CCCC2)cc1 (stereo not given),-3.24%
13,COC(=O)c1c(-c2cccs2)csc1NC(=O)c1ccc(C(C)(C)C)cc1,2.36%
14,COc1ccc(Cl)cc1NC(=O)Cn1nnc(C(=O)NCc2cccs2)c1N,0.199%
15,COc1ccc2c(CNCc3ccco3)c(C(=O)O)n(Cc3ccccc3)c2c1,-12.5%
16,COc1ccccc1NC(=O)COC(=O)CC(C)(C)CC1=NS(=O)(=O)c2ccccc2N1,23.7%
17,COc1cccc(N2CC(NC(=O)C3CCCC3)CC2=O)c1 (stereo not given),20%
18,O=C(O)c1cccnc1Sc1ncnc2sc3c(c12)CCC3,active: 34.2%
19,COc1ccc(N2CCN(C(=O)c3c4c(nc5ccccc35)C(=O)N(C3CCCCC3)C4)CC2)cc1,6.13%
20,COc1cc(S(=O)(=O)n2ccnc2C(C)C)ccc1Br,0.267%
21,Cc1ccc(Cn2ccnc2SCC(=O)NC2CCCC2)cc1,-6.19%
22,CCOc1ccc(CCNC(=O)CN2C(=O)COc3ccc(S(=O)(=O)N(CC)CC)cc32)cc1,-6.88%
23,COc1ccccc1CNC(=O)C(=O)NCC(c1cccnc1)N1CCN(c2ccc(F)cc2)CC1 (stereo not given),0.0497%
24,Cc1ccc(-c2nc(S(=O)(=O)c3ccc(C)cc3)c(N3CCCCC3)o2)cc1,-1.04%

row,SMILES,inhibition
1,Cc1cccc(Cc2c(C)nc3nc(SCc4cccc(F)c4)nn3c2C)c1,6.91%
2,Cn1c(C(=O)NCCCN2CCc3ccccc3C2)cc2c(=O)n(C)c3ccccc3c21,active: 80.5%
3,CCc1ccc(-n2c(N3CCN(c4cccc(C)c4C)CC3)nc3ccccc3c2=O)cc1,8.13%
4,Cc1ccc(Nc2nc(N)nc(N)c2S(=O)(=O)c2ccccc2)cc1,-2.32%
5,COC(=O)c1sccc1S(=O)(=O)N(CC(=O)NCc1ccccc1)c1ccc(C)cc1,2.95%
6,COc1ccccc1C(=O)Nc1nc(-c2ccc(Br)cc2)ns1,5.88%
7,O=C(N1CCN(c2ccccc2)CC1)C12CC3CC(CC(C3)C1)C2,active: 72%
8,O=C(CC1S/C(=N/N=C/c2cccs2)NC1=O)Nc1ccc(Cl)cc1 (stereo not given),active: 43.8%
9,COc1ccccc1N1CCN(C(=O)C2CCCN(S(=O)(=O)c3ccc4c(c3)oc(=O)n4C)C2)CC1 (stereo not given),-3.12%
10,Cc1ccc(C)c(NC(=O)Cn2cnc3nc4c(cc3c2=O)CCCC4)c1,2.34%
11,CCOC(=O)c1cccc(NC(=O)c2ccc3snnc3c2)c1,8.26%
12,COc1ccc(NC(C)=O)cc1NC(=O)CN1CCN(S(=O)(=O)c2ccc(C(C)C)cc2)CC1,active: 38.2%
13,CCN1C(=O)c2cccc3c(S(=O)(=O)N4CCC(C)CC4)ccc1c23,active: 37.5%
14,COC(=O)C1CCN(C(c2ccccc2Cl)c2sc3nc(-c4ccco4)nn3c2O)CC1 (stereo not given),8.2%
15,CCCCOc1ccc(C(=O)Nc2onc3c2CCCC3)cc1,7.12%
16,O=C(C[n+]1cccc(CNC(=O)c2ccc(OC(F)F)cc2)c1)Nc1cc(C(F)(F)F)ccc1Cl,active: 63%
17,Cc1cc(C)cc(NC(=O)Nc2cccs2)c1,-2.68%
18,CCOC(=O)CN1C(C(=O)c2ccccc2)=C(OC(=O)c2ccccc2)c2ccccc2S1(=O)=O,19.3%
19,Cc1ccc(NC(=O)C2CCCN(S(=O)(=O)c3ccc(F)cc3)C2)cc1 (stereo not given),-8.68%
20,Cc1ccc(NC(=O)CSc2nc3ccc(NC(=O)c4ccco4)cc3s2)c(C)c1,5.25%
21,CSc1cccc(NC(=O)C(c2ccccc2)N2Cc3ccccc3C2=O)c1 (stereo not given),-4.2%
22,COC(=O)c1cccc(CN2C(=O)SC(Nc3ccc(Br)cc3)C2=O)c1 (stereo not given),7.16%
23,CNC(=O)c1c(NC(=O)c2ccc(S(=O)(=O)N3CCCC(C)C3)cc2)sc2c1CCC2 (stereo not given),9.35%
24,COc1ccc(C(CNC(=O)c2cc3ccccc3o2)N2CCCCC2)cc1 (stereo not given),active: 66.6%

row,SMILES,inhibition
1,COc1ccc(-c2cc(C(F)(F)F)nc(NCCc3ccccc3)n2)cc1,-3.59%
2,COC(=O)c1c(SCC(=O)Nc2cc(F)ccc2F)[nH]c2ccc(C)cc2c1=O,-5.37%
3,Cc1cccc(NC(=S)NC2CC3CCCC(C2)N3Cc2cccs2)c1 (stereo not given),active: 76.8%
4,Cc1c(-c2ccc(Cl)cc2)c(=O)oc2c(CN3CCOCC3)c(O)ccc12,-10%
5,O=C(NCCc1ccccc1)c1cc2sccc2n1Cc1ccc(F)cc1,-4.12%
6,Cc1ccc(C)c(OCCCN2CCc3ccccc3C2)c1,active: 70.4%
7,CCOc1ccc(NC(=O)CN2CCN(CC(=O)Nc3ccc(OC)cc3)CC2)cc1,8.67%
8,COc1ccc(N2CCN(S(=O)(=O)CCNC(=O)c3ccc(OC(C)C)cc3)CC2)cc1,12.4%
9,COc1ccccc1/C=C/c1nc(C#N)c(N2CCN(c3ccccc3)CC2)o1,3.38%
10,CN(C(=O)CSc1nc2ccc(NC(=O)COc3ccccc3Cl)cc2s1)c1ccccc1,-7.44%
11,Cc1ccc(Nc2c(-c3ccccc3O)nc3cc(C)ccn23)cc1,11%
12,CC(C)(C)c1ccc(OCC(=O)NC(Cc2c[nH]c3ccccc23)C(=O)O)cc1 (stereo not given),5.1%
13,COc1cccc(CNC(=O)CCCn2c(=O)c3cccn3c3cccnc32)c1OC,-6.85%
14,CC(=O)Nc1ccc(NS(=O)(=O)c2cc3c4c(c2)CC(=O)N4CCC3)cc1,-21.3%
15,CCCCn1nc(NC(=O)c2cccc(Cl)c2)c2cc3ccc(C)cc3nc21,-12.8%
16,COc1cc(C(=O)NCCS(=O)(=O)N2CCN(c3ccccc3)CC2)cc(OC)c1OC,18.8%
17,COc1ccc(C2N(S(=O)(=O)c3ccc(C)cc3)CCN2S(=O)(=O)c2ccc(C)cc2)cc1,active: 36.4%
18,Cn1cc(S(=O)(=O)c2ccc(Cl)cc2)c(=O)c2cc(F)c(N3CCOCC3)cc21,-2.96%
19,COc1ccc(-c2cc3nc(C)c(CCC(=O)N4CCN(c5cc(C)ccc5C)CC4)c(C)n3n2)c(OC)c1,-8.41%
20,COc1ccc(NC(=O)CSc2nnc3c(C)cc4ccccc4n23)cc1,-4.81%
21,COc1cc(-c2nnn(CC(=O)NCc3ccccc3)n2)cc(OC)c1OC,-1.69%
22,CN(C)[C@@H]1CCC[C@H]1OC(=O)C(c1ccccc1)c1ccccc1,active: 46.9%
23,Cc1cnc2c(c1SCC(=O)NCc1ccc(F)cc1)c(=O)n(C)c(=O)n2C,9.98%
